# Data: paper PMC4336329 (PLoS ONE, 2015)
# Hit rate of the full screen: of about 310,000 compounds, about 2,200 (0.71%) showed an effect of 50% or more. Effects have a minus sign here. Some of the results follow.
# Target: human ether-à-go-go-related gene (hERG) potassium channel (human, UniProt Q12809)
# Test: primary screen, population patch clamp on CHO cells stably expressing hERG
# Protocol: Briefly, Chinese hamster ovary (CHO) cells stably expressing the hERG channel were dislodged from tissue culture flasks and dispensed into PPC plates. […] During the recording, background leak currents were estimated by a 100 ms step to -80 mV from an initial holding potential of -70 mV and subtracted from the subsequent current measurement. The campaign was conducted in two phases using slight differences in recording protocol. In the first phase, the initial voltage pulse used a 100 ms step to -30 mV from a holding potential of -70 mV, a 2 s conditioning step to +25 mV, and a 2 s test step to -30 mV. During the second phase of the screen, the potential during the conditioning step was raised to +45 mV. In both phases of the campaign, a secondary voltage pulse was applied using the same parameters as the second phase initial pulse. The initial and secondary pulses were applied in the absence of compound, and upon application of 1 μM and 10 μM test concentrations. Small molecule effects on hERG current density were quantified by […].
# human ether-à-go-go-related gene (hERG) potassium channel, sequence (Q12809 whole entry, looked up): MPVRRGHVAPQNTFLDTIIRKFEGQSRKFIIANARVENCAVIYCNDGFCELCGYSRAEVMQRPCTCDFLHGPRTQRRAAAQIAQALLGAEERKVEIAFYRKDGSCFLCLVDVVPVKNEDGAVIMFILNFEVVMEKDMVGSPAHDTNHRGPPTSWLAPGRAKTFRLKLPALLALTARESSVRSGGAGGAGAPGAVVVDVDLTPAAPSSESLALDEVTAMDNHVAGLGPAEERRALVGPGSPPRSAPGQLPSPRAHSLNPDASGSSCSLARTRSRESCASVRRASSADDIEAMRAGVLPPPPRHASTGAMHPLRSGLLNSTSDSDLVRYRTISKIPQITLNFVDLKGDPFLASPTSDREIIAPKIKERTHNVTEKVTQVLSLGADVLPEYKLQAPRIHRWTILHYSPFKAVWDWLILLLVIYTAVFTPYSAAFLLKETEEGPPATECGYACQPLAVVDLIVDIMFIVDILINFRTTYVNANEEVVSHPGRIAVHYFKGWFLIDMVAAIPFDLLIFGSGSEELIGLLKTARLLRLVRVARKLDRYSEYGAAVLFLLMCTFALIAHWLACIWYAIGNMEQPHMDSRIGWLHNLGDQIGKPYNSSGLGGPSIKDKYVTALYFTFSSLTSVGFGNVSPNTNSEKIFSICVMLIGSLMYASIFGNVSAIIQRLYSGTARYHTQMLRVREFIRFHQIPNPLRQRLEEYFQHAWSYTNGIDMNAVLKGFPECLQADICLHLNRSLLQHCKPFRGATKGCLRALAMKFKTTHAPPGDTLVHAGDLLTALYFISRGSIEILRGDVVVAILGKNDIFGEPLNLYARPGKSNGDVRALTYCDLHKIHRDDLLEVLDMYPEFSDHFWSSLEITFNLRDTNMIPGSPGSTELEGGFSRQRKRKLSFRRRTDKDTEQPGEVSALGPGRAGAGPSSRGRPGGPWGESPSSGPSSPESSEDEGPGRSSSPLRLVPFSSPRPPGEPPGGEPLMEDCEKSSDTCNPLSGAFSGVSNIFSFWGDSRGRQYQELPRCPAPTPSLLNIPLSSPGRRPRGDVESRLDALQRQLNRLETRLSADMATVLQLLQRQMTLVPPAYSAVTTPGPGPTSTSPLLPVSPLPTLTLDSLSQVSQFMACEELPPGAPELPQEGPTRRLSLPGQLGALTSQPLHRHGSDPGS
row,Structure (SMILES),"hERG current change (%, negative = inhibition) at 1uM"
1,O=[N+]([O-])c1ccccc1S(=O)(=O)Nc1ccc2c(c1)OCCO2,6.28%
2,CCOc1ccc(NC(=O)C/C(C)=N/NC(=O)c2cnccn2)cc1,0.75%
3,Cc1nnsc1C(=O)Nc1cccc(Cl)c1,12.5%
4,COc1ccc2c(c1)CCC/C2=N/OC(=O)c1ccccc1OC,15.4%
5,COc1ccc(OC)c(CCNC(=O)Cn2cccc2C(=O)c2ccccc2C)c1,3.24%
6,Cc1cc2nn(-c3cccc4ccccc34)nc2cc1NC(=O)c1cccs1,6.09%
7,Cc1ccc(NC(=S)NC(=O)c2ccc(F)cc2)cc1S(=O)(=O)Nc1cccc(Cl)c1,9.91%
8,CCC(NC(=O)Cc1cccs1)c1ccccc1 (centres unmarked),16.5%
9,Cc1nnc(NC(=O)/C=C/c2ccco2)s1,18.9%
10,Cc1nc(Nc2ccccc2Br)c2nnn(Cc3ccccc3)c2n1,11.4%
11,Cc1ccc(S(=O)(=O)Nc2nc3n(n2)C(c2ccc(Cl)cc2)CC(=O)N3)cc1 (centres unmarked),8.87%
12,CCN(CC(=O)Nc1ccc(NC(C)=O)cc1)C(=O)CSc1nnc(-c2ccco2)n1CC,16.2%
13,COc1ccc(OC)c(-c2csc(NC(=O)C3CSC4(C)CCC(=O)N34)n2)c1 (centres unmarked),5.28%
14,O=C(NCc1cccnc1)c1nnc(Cc2ccc(F)cc2)o1,10.8%
15,Cc1ccc(C(=O)N=c2sccn2C)cc1S(=O)(=O)N1CCOCC1,1.51%
16,CCN(CC)c1ccc(NC(=O)CCS(=O)(=O)c2cccc3nsnc23)c(C)c1,11%
17,COc1ccc(N2CCN(C(=O)c3ccc(C)cc3)CC2)c([N+](=O)[O-])c1,-29.7%
18,CCOc1cccc(CN2CCCC(CCC(=O)NCc3ccccc3F)C2)c1O (centres unmarked),-18.1%
19,Cc1cccc(-c2cc3nc(C)c(C)c(NCCCn4ccnc4)n3n2)c1,-20.6%
20,O=C(Nc1cc(C(F)(F)F)ccc1N1CCOCC1)C1CC1,9.37%
21,C[C@H](NC(=O)Cc1cccc2ccccc12)C(=O)NCc1ccccc1,8.27%
22,NC(=O)COC(=O)C(Cc1ccccc1)NS(=O)(=O)c1ccccc1F (centres unmarked),9.2%

row,Structure (SMILES),"hERG current change (%, negative = inhibition) at 1uM"
1,COc1ccc(C2NC(=S)N(c3ccccc3)C(C)=C2C(=O)Nc2ccccc2)cc1 (centres unmarked),13.2%
2,Cc1cc(=O)oc2c3c(cc(OCC(=O)NCCC(=O)O)c12)OC(C)(C)CC3,5.8%
3,CCN(CC(=O)NCc1ccc(Cl)cc1)C(=O)CN1C(=O)NC(CC)(c2ccccc2)C1=O (centres unmarked),11.7%
4,COc1ccc(C(CNC(=O)c2cccc(NS(=O)(=O)c3ccc(C)c(F)c3)c2)N2CCCC2)cc1 (centres unmarked),-17.6%
5,CN(Cc1cccs1)C(=O)CSc1nc2ccccc2[nH]1,-2.99%
6,COc1ccc(C)cc1S(=O)(=O)N(CC(=O)NCc1ccco1)c1ccc(C)cc1,-8.28%
7,O=C(COc1ccc(-c2nnco2)cc1)Nc1c(Cl)cccc1C(F)(F)F,1.19%
8,O=Nc1c(O)[nH]c2c(F)cccc12,11.7%
9,CCC(C)NC(=O)COC(=O)c1csc2c1CCCC2 (centres unmarked),10.4%
10,CCc1ccc(N2CC(C(=O)Nc3nccs3)CC2=O)cc1 (centres unmarked),-0.303%
11,C=CCc1cccc2cc(C(=O)N3CCN(C(=O)OCC)CC3)c(=O)oc12,-14.1%
12,CN1C(=O)C(CC(=O)Nc2ccc(Cl)cc2)N(Cc2ccco2)C1=S (centres unmarked),14.4%
13,O=C(NCc1ccc2c(c1)OCO2)c1cccs1,-9.19%
14,COc1ccc(N2C(=O)CC(Nc3cccc(C(C)=O)c3)C2=O)cc1OC (centres unmarked),10.8%
15,Cc1cccc(N(CC(=O)NC(C)(C)C)C(=O)CCC(=O)Nc2ccccn2)c1,19.3%
16,CC(C)CCOP(=O)(c1ccc(N(C)C)cc1)C(O)c1ccc(N(C)C)cc1 (centres unmarked),5.5%
17,O=[N+]([O-])c1ccc(N/N=C/C=C/c2ccco2)cc1,-6.06%
18,CC(C)(C)C(=O)NC1(C(F)(F)F)NC(=O)N(c2ccccc2F)C1=O (centres unmarked),11.7%
19,O=C(O)CCC(=O)Nc1ccc(Br)c(Cl)c1,17.6%
20,O=C(NC1CCC(O)CC1)c1cccnc1Sc1ccccc1Cl (centres unmarked),11.2%
21,O=C(COc1ccccc1)NC(=S)Nc1cccc(NC(=O)c2ccccc2Cl)c1,10.8%
22,COc1ccc(NC(=O)CSc2nc3ccccc3c3nc4ccccc4n23)cc1,11.1%

row,Structure (SMILES),"hERG current change (%, negative = inhibition) at 1uM"
1,COc1cc(NC(=O)CSc2nc3ccccc3c(=O)n2C)ccc1NC(=O)c1ccco1,-2.05%
2,COc1ccc(Nc2nc(N3CCCCC3)nc3ccccc23)c(OC)c1,-12.1%
3,Cc1ccc2cc3c(N)[nH]nc3nc2c1,6.77%
4,CN/C(=C\[N+](=O)[O-])NCCSCc1ccc(CN(C)C)o1.Cl,14.3%
5,COC(=O)C1(Cc2ccccc2)NC(c2ccccc2C)C2C(=O)N(c3ccc4c(c3)OCO4)C(=O)C21 (centres unmarked),2.84%
6,CC(=O)Nc1ccccc1OCC(=O)NC(C)c1ccccc1 (centres unmarked),8.82%
7,Cc1nc2ccc(NC(=O)c3ccc(Cl)c(S(=O)(=O)N(C)c4ccccc4)c3)cc2s1,14.4%
8,CN(CC(=O)Nc1ccc(F)cc1)C(=O)CNC(=O)C1CCCCC1,0.884%
9,CCCCNC(=O)C1Cc2cc(S(=O)(=O)N3CCCCC3)ccc2N1C(C)=O (centres unmarked),15.6%
10,COc1ccc(N(Cc2cc3ccccc3[nH]c2=O)S(=O)(=O)c2ccc(C)cc2)cc1,13.9%
11,N[C@@H](Cc1ccc(O)c(I)c1)C(=O)O,15.1%
12,COCC(C)n1c(COc2ccccc2F)nnc1SCc1c(C)noc1C (centres unmarked),9.31%
13,c1ccc(-c2nnc3sc(CN4CCc5ccccc54)cn23)cc1,2.4%
14,O=C(COC(=O)c1ccccc1NC(=O)c1ccco1)Nc1ncc(Cl)cc1Cl,6.49%
15,COc1ccc(NC(=O)c2cccnc2Nc2ccccc2)cc1,1.75%
16,CCCn1c(SCC(=O)N(C2CCCCC2)C2CCS(=O)(=O)C2)n[nH]c1=O (centres unmarked),2.2%
17,O=C1c2ccccc2C(=O)N1CCCCN(C(=O)c1cc([N+](=O)[O-])ccc1Cl)c1ccc(Cl)cc1,5.14%
18,O=C(c1cccs1)n1cc(C(=S)N2CCOCC2)c2ccccc21,0.607%
19,CCN(CC)CC1CCCCN1CC(=O)N1c2ccccc2C(=O)Nc2cccnc21 (centres unmarked),18.1%
20,COc1ccc(C(C)=O)cc1CSc1nnc(-c2ccccc2O)n1-c1ccccc1,-14.1%
21,CCCCCc1ccc(S(=O)(=O)Nc2cc(C)ccn2)cc1,10.8%
22,O=C(O)/C=C/c1cn(-c2ccccc2)nc1-c1cc2ccccc2o1,12.4%

row,Structure (SMILES),"hERG current change (%, negative = inhibition) at 1uM"
1,CCOc1ccc(NC(=NCc2ccc3c(c2)OCO3)SC2CC(=O)N(c3ccc(OCC)cc3)C2=O)cc1 (centres unmarked),3.91%
2,O=C(N/N=C/c1ccc2c(c1)OCO2)C(O)c1ccccc1 (centres unmarked),10.1%
3,Nc1ccc(N2CCN(Cc3ccccc3Cl)CC2)c(Cl)c1,5.3%
4,O=C(CC1SC(N2CCCC2)=NC1=O)Nc1ccc(C(=O)NCCc2ccc(F)cc2)cc1 (centres unmarked),7.77%
5,CC(=O)c1c(COC(=O)c2cccc(C)c2)nc2ccccc2[n+]1[O-],11.3%
6,CSc1ccc(NC(=O)N2CC=C(n3c(=O)[nH]c4ccccc43)CC2)cc1,-2.13%
7,Cc1cc(OCC(=O)N(Cc2ccccc2)C2CCS(=O)(=O)C2)ccc1Cl (centres unmarked),18.8%
8,COc1ccc(C(=O)C2CCCN(Cc3cnc(N4CCCC4)s3)C2)cc1OC (centres unmarked),-15.8%
9,CCOc1nc(SC(C(C)=O)C(=O)Nc2ccccc2)nc(N(C)C)n1 (centres unmarked),-5.02%
10,Cc1ccccc1OCC(O)CN1CCN(c2ccc(Cl)cc2)CC1 (centres unmarked),-58.2%
11,O=C(CO/N=C/c1ccccc1OC(F)F)NCc1ccco1,4.42%
12,Nc1[nH]n2c(=O)c3c(nc2c1N=Nc1ccc(Cl)cc1)CCCC3,-2.44%
13,CC1CCCN(C(=S)Nc2ccc(S(=O)(=O)N3CCCCC3)cc2)C1 (centres unmarked),8.61%
14,CC(C#N)(NC(=O)COC(=O)c1ccccc1NCCO)C1CC1 (centres unmarked),11.6%
15,COCCn1c(SCC(=O)Nc2cc(C(C)(C)C)nn2-c2ccccc2)nnc1-c1ccncc1,-11.5%
16,CCOC(=O)N1c2ccccc2Sc2ccccc21,10.5%
17,CCOC(=O)C1CCN(C(=O)CS(=O)Cc2nc(-c3ccc(C)cc3)oc2C)CC1 (centres unmarked),18%
18,O=C(NC1CCS(=O)(=O)C1)c1ccc(-c2ccc(Br)cc2)o1 (centres unmarked),-2.34%
19,Cc1cc(NC(=O)CSc2ccc3nnc(-c4cccnc4)n3n2)no1,11.1%
20,N#CCCSCc1ccc2oc(C(=O)O)cc2c1,12.7%
